Reference: PubChem BioAssay AID463173 (ICCB-Longwood Screening Facility, Harvard Medical School, 2010)
Hit rate of the full screen: of about 52,000 compounds, about 1,700 (3.3%) were called active. No stated cut-off is given here; in the data, active means survival mostly below about 52% (no sharp cut-off); inactive means mostly above about 56%. This is one part of the list.

The compounds below were run on Wild type (assay: S. aureus survival, RN4220 and DeltatarO strains – OD600, teichoic acid synthesis inhibitors, primary screen (AID 463173)). Conditions: S. aureus RN4220 wild type/DeltatarO growth, OD600, 18 h, active compounds read low, screened at 18.75 µg/mL (by protocol).

Q: Which survival does the source give for `COc1ccccc1CNC(=O)CN1C(=O)CSc2ccc(S(=O)(=O)N(C)C)cc21` here?
A: inactive: 80%

Q: How did the survival turn out when `CCOC(=O)c1c(C)[nH]c(CCC(=O)NCCCN2CCN(c3cc(C)ccc3C)CC2)c1C` was run?
A: inactive: 69%

Q: With `O=C(CCNS(=O)(=O)c1ccc2c(c1)CCN2C(=O)C1CC1)N1CCN(c2ccccc2F)CC1` as the compound, how does the survival read?
A: inactive: 82%

Q: With `CCOc1ccc(S(=O)(=O)N2CCN(c3ccc(Cl)c(Cl)c3)CC2)c2ccccc12` as the compound, how does the survival read?
A: inactive: 154%

Q: For `CCn1nc(-c2ccccc2)c(-c2ccccc2)c(C(=O)Nc2nc(C)c(C(=O)N(C)C)s2)c1=O`, which survival is on record?
A: inactive: 87%

Q: With `CCCn1c(CCC(=O)Nc2cc(Cl)c(OC)cc2OC)nc2cccnc21` as the compound, how does the survival read?
A: inactive: 84%

Q: Which survival does the source give for `C/C(=N/O)c1ccc2c(c1)OCCO2` here?
A: inactive: 101%

Q: Which survival does the source give for `Cc1ccc(C)c(NC(=O)CSc2ncc3c(n2)-c2ccc(Cl)cc2N(C)S3(=O)=O)c1` here?
A: inactive: 88%

Q: Which survival does the source give for `CC(=O)OC(COc1ccccc1)Cn1cnc2cc(C)c(C)cc21` (stereo unspecified) here?
A: inactive: 125%

Q: How did the survival turn out when `O=C(NC1CCCCC1)NC1CCN(S(=O)(=O)c2cccc(Cl)c2)CC1` was run?
A: inactive: 125%

Q: With `COc1ccc(NC(=O)CC2C(=O)N(c3ccc(C)cc3)C(=O)N2C2CCCCC2)cc1` (stereo unspecified) as the compound, how does the survival read?
A: inactive: 74%

Q: For `O=C(CCSCc1ccccc1Cl)N1CCN(c2cccc(Cl)c2)CC1`, which survival is on record?
A: inactive: 75%

Q: How did the survival turn out when `O=C(Cn1c(=O)n(-c2ccccc2Cl)c(=O)c2sc3ccccc3c21)N1CCCC1` was run?
A: inactive: 84%

Q: How did the survival turn out when `CCOc1ccc(CNC(=O)c2cnc3sc(N(CC)CC)nn3c2=O)cc1OC` was run?
A: inactive: 73%

Q: `Cn1nccc1C(=O)Nc1cccnc1` was tested. Which survival did it give?
A: inactive: 104%

Q: How did the survival turn out when `CCc1nc2cccnc2n1-c1ccc(CC(=O)Nc2ccc(C)cc2)cc1` was run?
A: inactive: 74%

Q: `Cc1ccc(NC(=O)CSc2nc3nccnc3c(=O)n2CCc2c[nH]c3ccccc23)cc1` was tested. Which survival did it give?
A: inactive: 99%

Q: For `Cc1cc(C)cc(NC(=O)CCc2nnc3n(CC(C)C)c(=O)c4ccccc4n23)c1`, which survival is on record?
A: inactive: 89%

Q: `CC(C)N(Cc1ccccc1)C(=O)CN1C(=O)COc2ccc(S(=O)(=O)NC3CCCC3)cc21` was tested. Which survival did it give?
A: inactive: 92%

Q: With `COc1ccc(-n2ccn(Cc3ccccc3Cl)c(=O)c2=O)cc1OC` as the compound, how does the survival read?
A: inactive: 88%

Q: With `CC(C)NC(=O)C1CCCCC1C(=O)O` (stereo unspecified) as the compound, how does the survival read?
A: inactive: 88%

Q: For `CCN(C(=O)CSc1nc2ccccc2n1CC(=O)Nc1ccccc1C)c1ccccc1`, which survival is on record?
A: active: -6%

Q: `COc1cc(CNc2ccc3[nH]c(=O)[nH]c3c2)ccc1OCc1ccccc1F` was tested. Which survival did it give?
A: inactive: 104%

Q: With `CCN=C1SC(CC(=O)Nc2ccccc2)C(=O)N1CC` (stereo unspecified) as the compound, how does the survival read?
A: inactive: 112%

Q: How did the survival turn out when `COc1ccc(Cl)cc1NC(=O)CSc1ccc(-c2sc(C)nc2C)nn1` was run?
A: inactive: 79%

Q: How did the survival turn out when `CC(C)Cc1nn2c(=O)cc(COC(=O)c3ccc4c(c3)OCO4)nc2s1` was run?
A: inactive: 73%

Q: Which survival does the source give for `O=C(CNCCCN1CCOCC1)Nc1ccc(OC(F)(F)F)cc1` here?
A: inactive: 114%

Q: For `CCCNS(=O)(=O)c1ccc2[nH]c(=O)[nH]c2c1`, which survival is on record?
A: inactive: 112%

Q: With `COc1cc(OC)cc(C(=O)Nc2ncn[nH]2)c1` as the compound, how does the survival read?
A: inactive: 93%

Q: For `CCN(CC)S(=O)(=O)c1ccc(NC(=O)CCc2c(C)nc3cc(-c4ccc(Cl)cc4)nn3c2C)cc1`, which survival is on record?
A: inactive: 105%

Q: With `CN(C)c1ccc(C(CNS(=O)(=O)c2ccc(Br)cc2)N2CCCC2)cc1` (stereo unspecified) as the compound, how does the survival read?
A: inactive: 68%

Q: Which survival does the source give for `CCOC(=O)c1cc2c(=O)n3ccccc3nc2n(CCCOC)c1=NC(=O)C(C)(C)Oc1ccc(Cl)cc1` here?
A: inactive: 70%

Q: `Cc1cc2oc(C(=O)Nc3sc4c(c3C(=O)NCC3CCCO3)CCC4)cc(=O)c2cc1C` (stereo unspecified) was tested. Which survival did it give?
A: inactive: 80%

Q: With `O=C(Nc1ccc2oc(-c3cccnc3)nc2c1)c1ccc(-c2ccc(Cl)cc2)o1` as the compound, how does the survival read?
A: inactive: 85%

Q: Which survival does the source give for `COc1ccc(CNC(=O)CSc2nc3ccsc3c(=O)n2Cc2ccccc2Cl)cc1` here?
A: inactive: 60%

Q: `CCc1ccc(N2C(=O)CC(c3cc(OC)ccc3OC)C3=C2COC3=O)cc1` (stereo unspecified) was tested. Which survival did it give?
A: inactive: 74%

Q: With `CCOc1ccc(C2CC(=O)n3nc(-c4ccc(C)cc4)nc3S2)cc1` (stereo unspecified) as the compound, how does the survival read?
A: inactive: 75%

Q: For `Cc1cccc(NC(=S)N(CCN(C)C)Cc2cc3cc4c(cc3[nH]c2=O)OCO4)c1`, which survival is on record?
A: inactive: 108%

Q: For `O=C(CSc1nnc(-c2ccc(NS(=O)(=O)c3ccccc3)cc2)o1)NCC1CCCO1` (stereo unspecified), which survival is on record?
A: inactive: 95%

Q: Which survival does the source give for `Cc1ccc(NC(=O)Cn2ncn3c(cc4ccccc43)c2=O)c(C)c1` here?
A: inactive: 75%

Q: `COc1ccccc1CNC(=O)Cc1csc2nc(-c3ccc(Cl)cc3)cn12` was tested. Which survival did it give?
A: inactive: 73%

Q: `CCOc1cc(CNC(=O)c2ccc(C)c(NC(=O)c3nsc4ccccc34)c2)ccc1OC` was tested. Which survival did it give?
A: inactive: 75%

Q: With `CC(NC(=O)c1ccc2c(c1)N(Cc1ccc(Cl)cc1)C(=O)c1ccccc1S2(=O)=O)c1ccccc1` (stereo unspecified) as the compound, how does the survival read?
A: inactive: 99%

Q: For `CCOc1cc2sc(N3CCC(C(=O)Nc4ccc(C)cc4)CC3)nc2cc1Br`, which survival is on record?
A: inactive: 81%

Q: How did the survival turn out when `O=C1CC(C(=O)NCc2ccco2)C2(CCCCC2)O1` (stereo unspecified) was run?
A: inactive: 106%

Q: For `CCCCCn1c(=N)c(S(=O)(=O)c2ccccc2)cc2c(=O)n3ccccc3nc21`, which survival is on record?
A: inactive: 80%

Q: With `CCOc1ccc(CCNC(=O)Cn2nc(CC)n3c(cc4sc(CC)cc43)c2=O)cc1OCC` as the compound, how does the survival read?
A: inactive: 87%

Q: How did the survival turn out when `CCn1c(=O)c2cc(C(=O)NC3CCCCCC3)sc2c2ccccc21` was run?
A: inactive: 70%

Q: Which survival does the source give for `O=c1[nH]c(C2CCCNC2)nc2c1nnn2Cc1ccccc1` (stereo unspecified) here?
A: inactive: 103%

Q: For `CCc1ccc(CSc2nc(-c3ccc(OC)cc3)nc3c2Cc2c(CO)cnc(C)c2O3)cc1`, which survival is on record?
A: inactive: 85%

Q: `O=S(=O)(NCc1ccccc1)c1ccc(-c2cnc(C3CC3)o2)cc1` was tested. Which survival did it give?
A: inactive: 83%

Q: For `CCOC(=O)c1sc(NC(=O)c2nc3ncccn3n2)c(C(=O)OC)c1C`, which survival is on record?
A: inactive: 64%

Q: How did the survival turn out when `Cc1ccc(S(=O)(=O)N(C#N)c2nc(C)cc(C)n2)cc1` was run?
A: inactive: 103%

Q: `O=C(CCNS(=O)(=O)c1ccc2c(c1)CCN2C(=O)C1CC1)N1CCN(c2ccc(F)cc2)CC1` was tested. Which survival did it give?
A: inactive: 127%

Q: Which survival does the source give for `COc1ccc(S(=O)(=O)c2cn(Cc3ccccc3)c3cc(N4CCCC4)c(F)cc3c2=O)cc1` here?
A: inactive: 90%

Q: For `COc1ccc(CCNC(=O)CCCCn2c(=O)c3ccccc3n(CC(=O)Nc3ccccc3C)c2=O)cc1OC`, which survival is on record?
A: inactive: 104%
